These results are taken from article PMC11995724, “Antibiotic target discovery by integrated phenotypic and activity-based profiling of electrophilic fragments” (Cell chemical biology, 2025).

About 75 (2%) of roughly 3,200 compounds showed an effect of 50% or more. This is one part of the list.

The experiment concerns T1, S. aureus MSSA476.
T1 construct: MSSA476
Also noted: species or system S. aureus MSSA476 (TSB) or V. cholerae SAD30 (LB); 384-well bacterial growth screen at 25 uM, OD600 relative to DMSO control. Conditions: relative growth, OD600, TSB; 25 µM; inhibitor.
With `C=CC(=O)N1CCn2c(cnc2C(F)(F)F)C1` [3-B16, 1-[3-(trifluoromethyl)-5H,6H,7H,8H-imidazo[1,5-a]pyrazin-7-yl]prop-2-en-1-one], the “% of control remaining” value was determined as 133.043%.

For the molecule `CC(C)NC(=O)C(C#N)=Cc1ccc(-c2ccccc2F)o1` [8-K18, 2-cyano-3-[5-(2-fluorophenyl)furan-2-yl]-N-(propan-2-yl)prop-2-enamide], the “% of control remaining” value worked out at 83.9834%.

`Cn1ccc(NC(=O)C(C#N)=Cc2ncccc2C(F)(F)F)n1` [8-F17, 2-cyano-N-(1-methyl-1H-pyrazol-3-yl)-3-[3-(trifluoromethyl)pyridin-2-yl]prop-2-enamide]: the “% of control remaining” value worked out at 113.859%.

For `N#CC(=Cc1ccc(Cl)cc1)C(N)=O` [8-L21, 3-(4-chlorophenyl)-2-cyanoprop-2-enamide], the “% of control remaining” value worked out at 104.896%.

With `C=CC(=O)NCc1nc(C(=O)O)c(C)s1` [1-K03, 5-methyl-2-[(prop-2-enamido)methyl]-1,3-thiazole-4-carboxylic acid], the “% of control remaining” value is 90.022%.

On to `O=C(CCl)NC1CCSc2ccc(F)cc21` (stereo not drawn) [5-M09, 2-chloro-N-(6-fluoro-3,4-dihydro-2H-1-benzothiopyran-4-yl)acetamide], for which the “% of control remaining” value is on record as 95.8106%.

Take `O=C(CCl)NCc1ccccc1OC1CCCC1` [6-C14, 2-chloro-N-{[2-(cyclopentyloxy)phenyl]methyl}acetamide]: the “% of control remaining” value turned out to be 100.732%.

As for `COCc1nnc([C@]23CC[C@H]2CCN3C(=O)C(C)Cl)o1` (mixture of isomers) [5-H15, rac-2-chloro-1-[(1R,5R)-1-[5-(methoxymethyl)-1,3,4-oxadiazol-2-yl]-2-azabicyclo[3.2.0]heptan-2-yl]propan-1-one], the “% of control remaining” value was determined as 104.918%.

For the molecule `N#CC(=Cc1ccc(N)cc1)C(=O)N1CCCC1` [9-E14, 3-(4-aminophenyl)-2-(pyrrolidine-1-carbonyl)prop-2-enenitrile], the “% of control remaining” value is 98.2772%.

As for `CCC(=O)Nc1ccc(C(=O)CCl)cc1` [10-C03, N-[4-(2-chloroacetyl)phenyl]propanamide], the “% of control remaining” value is reported as 1.5625%.

For `CC(Cl)C(=O)NC[C@H]1CCCN(C2CC2)[C@@H]1c1ccnn1C` (mixture of isomers) [6-P20, rac-2-chloro-N-{[(2R,3S)-1-cyclopropyl-2-(1-methyl-1H-pyrazol-5-yl)piperidin-3-yl]methyl}propanamide], the “% of control remaining” value stood at 103.805%.

With `CC(C)NC(=O)C(C#N)=Cc1ccc(Cl)c(Cl)c1` [9-M07, 2-cyano-3-(3,4-dichlorophenyl)-N-(propan-2-yl)prop-2-enamide], the “% of control remaining” value came out at 103.071%.

Turning to `C=CC(=O)N1CCC(C(=O)NCc2ccc(S(N)(=O)=O)cc2)CC1` [3-N10, 1-(prop-2-enoyl)-N-[(4-sulfamoylphenyl)methyl]piperidine-4-carboxamide], the “% of control remaining” value turned out to be 121.898%.

Take `CC(Cl)C(=O)NCCc1ccc[nH]1` (stereo not drawn) [7-L09, 2-chloro-N-[2-(1H-pyrrol-2-yl)ethyl]propanamide]: the “% of control remaining” value is 113.972%.

On to `CC(Cl)C(=O)NCCN1CCn2nccc2C1` (stereo not drawn) [5-D13, 2-chloro-N-(2-{4H,5H,6H,7H-pyrazolo[1,5-a]pyrazin-5-yl}ethyl)propanamide], for which the “% of control remaining” value was found to be 98.3607%.

For `C=CC(=O)N1CCOCC1CC(=O)c1ccco1` (stereo not drawn) [2-M17, 1-{3-[2-(furan-2-yl)-2-oxoethyl]morpholin-4-yl}prop-2-en-1-one], the “% of control remaining” value is given as 106.527%.

Take `NC(=O)c1cc(-c2ccccc2)sc1NC(=O)CCl` [6-M14, 2-(2-chloroacetamido)-5-phenylthiophene-3-carboxamide]: the “% of control remaining” value was determined as 136.244%.

`Cc1ccccc1NC(=O)C(C#N)=Cc1c(Cl)nc2ccccn12` [9-I22, 3-{2-chloroimidazo[1,2-a]pyridin-3-yl}-2-cyano-N-(2-methylphenyl)prop-2-enamide]: the “% of control remaining” value came to 71.0112%.

For the molecule `C=CC(=O)Nc1ccc(C(=O)N2CCCCC2c2noc(C)n2)cc1` (stereo not drawn) [2-C20, N-{4-[2-(5-methyl-1,2,4-oxadiazol-3-yl)piperidine-1-carbonyl]phenyl}prop-2-enamide], the “% of control remaining” value is 99.913%.

Take `C=CC(=O)NCC1CS(=O)(=O)c2ccccc21` (stereo not drawn) [3-J15, N-[(1,1-dioxo-2,3-dihydro-1lambda6-benzothiophen-3-yl)methyl]prop-2-enamide]: the “% of control remaining” value turned out to be 119.808%.

Take `CCN(c1ccc(C(=O)CCl)cc1)S(C)(=O)=O` [10-F04, N-[4-(2-chloroacetyl)phenyl]-N-ethylmethanesulfonamide]: the “% of control remaining” value is 2.1875%.

With `CC(C)OC(=O)c1ccc(NC(=O)C(C)Cl)cc1` (stereo not drawn) [4-K08, propan-2-yl 4-(2-chloropropanamido)benzoate], the “% of control remaining” value is on record as 110.148%.

On to `Cc1ccc(C)c(NC(=O)C(C#N)=Cc2cccn2C)c1` [8-M07, 2-cyano-N-(2,5-dimethylphenyl)-3-(1-methyl-1H-pyrrol-2-yl)prop-2-enamide], for which the “% of control remaining” value was determined as 114.855%.

Regarding `CC(=O)Nc1ccsc1C=C(C#N)C(=O)Nc1ccc(F)cc1` [9-F14, 2-cyano-3-(3-acetamidothiophen-2-yl)-N-(4-fluorophenyl)prop-2-enamide], the “% of control remaining” value turned out to be 122.247%.

In the case of `Cc1cc(C(=O)O)ccc1N1C(=O)C=CC1=O` [10-G22, 4-(2,5-dioxo-2,5-dihydro-1H-pyrrol-1-yl)-3-methylbenzoic acid], the “% of control remaining” value is on record as 125.625%.

As to `C=CC(=O)NCC(F)(F)c1cccnc1` [1-O12, N-[2,2-difluoro-2-(pyridin-3-yl)ethyl]prop-2-enamide], the “% of control remaining” value was 116.747%.

Take `Cc1cc(C(=O)CCl)c(C)n1-c1cccc(Cl)c1` [10-N18, 2-chloro-1-[1-(3-chlorophenyl)-2,5-dimethyl-1H-pyrrol-3-yl]ethan-1-one]: the “% of control remaining” value is reported as 100.313%.

For the molecule `C=CC(=O)N(C)Cc1cn(C2CC2)cn1` [2-J13, N-[(1-cyclopropyl-1H-imidazol-4-yl)methyl]-N-methylprop-2-enamide], the “% of control remaining” value is recorded as 118.712%.

Consider `C=CC(=O)N[C@H]1CCO[C@@H]1c1ccnn1C` [2-K19, N-[(2S,3S)-2-(1-methyl-1H-pyrazol-5-yl)oxolan-3-yl]prop-2-enamide], for which the “% of control remaining” value came out at 105.135%.

Turning to `CC(Cl)C(=O)N1CCOCC(n2cccn2)C1` (stereo not drawn) [6-H22, 2-chloro-1-[6-(1H-pyrazol-1-yl)-1,4-oxazepan-4-yl]propan-1-one], the “% of control remaining” value was 103.463%.

Regarding `C=CC(=O)NCc1nc2c(s1)CCCC2` [1-G18, N-[(4,5,6,7-tetrahydro-1,3-benzothiazol-2-yl)methyl]prop-2-enamide], the “% of control remaining” value was 119.56%.

Consider `Cc1ccc(CN(C(=O)CCl)C2CC2)o1` [6-E03, 2-chloro-N-cyclopropyl-N-[(5-methylfuran-2-yl)methyl]acetamide], for which the “% of control remaining” value is 82.9756%.

Turning to `C=CC(=O)NCC(=O)Nc1ccc2c[nH]nc2c1` [1-L11, N-{[(2H-indazol-6-yl)carbamoyl]methyl}prop-2-enamide], the “% of control remaining” value was determined as 97.4066%.

Turning to `CC(Cl)C(=O)Nc1cccc(-c2ncc3n2CCCC3)c1` (stereo not drawn) [5-F19, 2-chloro-N-(3-{5H,6H,7H,8H-imidazo[1,5-a]pyridin-3-yl}phenyl)propanamide], the “% of control remaining” value turned out to be 100.911%.

As to `CC(NC(=O)CCl)c1cc(F)ccc1N(C)C` (stereo not drawn) [5-L11, 2-chloro-N-{1-[2-(dimethylamino)-5-fluorophenyl]ethyl}acetamide], the “% of control remaining” value was 109.29%.

Take `C=CC(=O)NC1CCC(c2nc(-c3ccccc3)n[nH]2)CC1` (stereo not drawn) [1-P05, N-[4-(3-phenyl-1H-1,2,4-triazol-5-yl)cyclohexyl]prop-2-enamide]: the “% of control remaining” value came to 81.9341%.

On to `Cc1cc(C(=O)CCl)c(C)n1-c1ccccc1` [10-L20, 2-chloro-1-(2,5-dimethyl-1-phenyl-1H-pyrrol-3-yl)ethan-1-one], for which the “% of control remaining” value turned out to be 127.188%.

For the molecule `Cc1cc(C(=O)CCl)c(C)n1CCc1cccs1` [10-F16, 2-chloro-1-{2,5-dimethyl-1-[2-(thiophen-2-yl)ethyl]-1H-pyrrol-3-yl}ethan-1-one], the “% of control remaining” value is recorded as 20.3125%.

For the molecule `N#CC(=Cc1cccnc1)C(=O)Nc1cccc2ccccc12` [8-L17, 2-cyano-N-(naphthalen-1-yl)-3-(pyridin-3-yl)prop-2-enamide], the “% of control remaining” value is on record as 142.407%.

Regarding `N#CC(=Cc1csc(C2CC2)n1)C(=O)Nc1ccccc1C(=O)O` [9-C16, 2-[2-cyano-3-(2-cyclopropyl-1,3-thiazol-4-yl)prop-2-enamido]benzoic acid], the “% of control remaining” value is reported as 75.8052%.

Take `Cc1ccc(C=C(C#N)C(=O)NC2CCCC2)cc1C` [8-E12, 2-cyano-N-cyclopentyl-3-(3,4-dimethylphenyl)prop-2-enamide]: the “% of control remaining” value is 100.581%.

As for `C=CC(=O)NC1CN(S(=O)(=O)c2ccc3c(c2)OCCO3)C1` [2-E11, N-[1-(2,3-dihydro-1,4-benzodioxine-6-sulfonyl)azetidin-3-yl]prop-2-enamide], the “% of control remaining” value was found to be 96.4317%.

Consider `C=CC(=O)NC1(c2ncon2)CC1` [1-A05, N-[1-(1,2,4-oxadiazol-3-yl)cyclopropyl]prop-2-enamide], for which the “% of control remaining” value stood at 98.1099%.

Regarding `CCn1nc(C)c(C(=O)CCl)n1` [10-P08, 2-chloro-1-(2-ethyl-5-methyl-2H-1,2,3-triazol-4-yl)ethan-1-one], the “% of control remaining” value is reported as 110.625%.

For `COC(=O)C1(NC(=O)CCl)CC1` [6-I06, methyl 1-(2-chloroacetamido)cyclopropane-1-carboxylate], the “% of control remaining” value is recorded as 95.9512%.
